Test results taken from PubChem BioAssay AID485364 (National Center for Advancing Translational Sciences (NCATS), 2010).
Out of some 360,000 compounds screened, about 11,000 (3.1%) were called active. Inconclusive means that the source gave no clear call. Such entries were picked first, then a sample of the others. Calls come from the whole dose curve; as a rule, active = well fitted inhibition curve with a large enough effect; inconclusive = small, poorly fitted or top-dose-only effect; inactive = no such curve, though single readings can be large or run the other way. Potencies of inconclusive entries are left out as doubtful fits.

target: Schistosoma mansoni thioredoxin glutathione reductase (TGR) (UniProt Q962Y6); assay: qHTS Assay for the Inhibitors of Schistosoma Mansoni Peroxiredoxins; details: purified TGR, DTNB reduction, TNB absorbance 405 nm; activity change, negative = inhibition: at 114 µM (top of the series) unless noted; note: nearly all actives have a fitted effect of over 60% in size
Method in brief: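 TGR 20 nM + NADPH 100 uM (dispensed conc.), cpd preinc 15 min RT; start with NADPH (500 uM addition) then DTNB (15 mM addition). Kinetic TNB absorbance, 405 nm filter. Four-parameter Hill fit across titration.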
% is set by controls: 0 for no effect and ±100 for the full control effect; potency is the fitted concentration of half-maximal effect; tags give direction and shape of the fitted curve.

SMILES | activity change, negative = inhibition | Potency
CSc1nc(N(C)NC(=O)c2ccc(F)cc2)c2ccccc2n1 | inactive: 12% | 
Cc1oc(/C=N/NC(=O)CN(c2ccccc2Cl)S(C)(=O)=O)cc1Br |  | inconclusive [inhibitor, partial curve]
COc1cccc(-c2nc(=S)c3c(n2Cc2ccco2)CCCC3)c1 |  | inconclusive [inhibitor, single point]
COC(=O)c1nc(NC(=O)c2cc(OC)c(OC)c(OC)c2)n[nH]1 |  | active: 31.6 µM
COc1cc(C(C#N)N2CCC(c3ccccc3)=N2)ccc1O (stereo not given) |  | inconclusive [inhibitor, full curve, poor fit]
CC(=O)Nc1ccc(S(=O)(=O)N2CCN(CC3CC4C=CC3C4)CC2)cc1 (stereo not given) | inactive: -4.47% | 
CC(=O)Nc1ccc(SC[C@H](Cc2ccccc2)N2CCN(CC(C)C)CCC2=O)cc1 |  | inconclusive [inhibitor, partial curve]
Cc1ccc(NCc2nnc(SCC(=O)Nc3ncc(C)s3)n2Cc2ccco2)c(C)c1 |  | inconclusive [inhibitor, partial curve]
O=C(CNC(=O)c1cccs1)NCCN1CCC(Cc2ccccc2)CC1 |  | inconclusive [inhibitor, single point]
COc1ccc(N2C(=O)CC(N3CCN(c4ccc(S(=O)(=O)N5CCCC5)cc4)CC3)C2=O)cc1 (stereo not given) |  | inconclusive [inhibitor, partial curve]
COc1ccc(NC2CCCN(C(=O)C3(C)CCCCC3)C2)cc1OC (stereo not given) |  | inconclusive [inhibitor, partial curve]
O=C(CCNc1ccc(Cl)c(C(F)(F)F)c1)c1ccco1 |  | inconclusive [inhibitor, full curve]
Cc1sc(NC(=O)c2ccco2)c(C(c2ccc(F)cc2)N2CCN(C)CC2)c1C (stereo not given) |  | inconclusive [inhibitor, partial curve]
O=C(c1cccc(NS(=O)(=O)c2ccc(Br)cc2)c1)N1CCN(c2ccccc2O)CC1 | inactive: -5.48% | 
CCOc1ccc(N/C(=C(/C(Cl)=C(Cl)Cl)[N+](=O)[O-])n2cncn2)cc1 |  | active: 11.2 µM
O=C1/C(=C/Nc2ccc3c(c2)OCO3)CCc2ccccc21 |  | inconclusive [inhibitor, single point]
Oc1ccc(-c2csc(-c3cccnc3)n2)cc1O |  | inconclusive [inhibitor, partial curve]
CCc1c(C)c(C#N)c2nc3ccccc3n2c1NCCN(C)C |  | inconclusive [inhibitor, partial curve]
Nc1nnc(SCC(=O)Nc2cccc3ccccc23)s1 |  | inconclusive [inhibitor, single point]
C/C(CS(=O)(=O)c1ccc(Cl)cc1)=N/NC(N)=S |  | inconclusive [inhibitor, single point]
COc1ccc(Cl)cc1NC(=S)NCCc1ccc(F)cc1 |  | inconclusive [inhibitor, full curve]
O=C(N/N=C/c1cccc2ccccc12)c1n[nH]c2c1CCCC2 | inactive: 10.6% | 
CC1(C)Cc2c(C#N)c(NCc3ccco3)nc(-c3ccco3)c2CO1 |  | active: 7.94 µM
Cc1[nH]c2ccccc2c1C(=O)C(=O)N1CCN(C(=O)c2ccco2)CC1 |  | inconclusive [inhibitor, partial curve]

SMILES | activity change, negative = inhibition | Potency
CN(Cc1c(C(=O)N/N=C/c2cccc(Cl)c2)nnn1-c1nonc1N)c1ccccc1 | inactive: -1.54% | 
CNC(=O)/C=C1\NC(C)(C)Cc2c1ccc1ccccc21 |  | inconclusive [inhibitor, full curve, poor fit]
Cc1cc(/C=C(\C#N)C(=O)Nc2ccccc2F)c(C)[nH]1 |  | inconclusive [inhibitor, partial curve, poor fit]
O=C(CCCN1C(=O)CCC1=O)Nc1ccc2c(c1)OCCO2 | inactive: 8.82% | 
Cn1cnc([N+](=O)[O-])c1S(=O)(=O)c1cccc(Cl)c1 |  | active: 0.282 µM
COc1cc(C2c3c(oc4ccccc4c3=O)C(=O)N2c2nccs2)ccc1O (stereo not given) |  | inconclusive [inhibitor, partial curve]
Cc1ccc(-c2c(C#N)c(N)nc3c2CCCC3)o1 |  | active: 25.1 µM
Cc1cc(C)cc(OCc2ccc(C(=O)NC3CCOC3=O)o2)c1 (stereo not given) |  | inconclusive [inhibitor, partial curve]
Oc1ccc(N2CCN(c3ccnc4cc(Cl)ccc34)CC2)cc1 |  | inconclusive [inhibitor, partial curve, poor fit]
CCC(C)Cn1c(S(=O)(=O)O)nc2ccccc21 (stereo not given) |  | inconclusive [inhibitor, partial curve]
CC(=O)NNc1cc(C)nc(N)n1 | inactive: 11.7% | 
Cc1cccc(C)c1-n1c(C)cc(/C=C2\NC(=O)NC2=O)c1C |  | inconclusive [inhibitor, full curve, poor fit]
CN1C(=O)c2ccc(NC(=S)NC(=O)C(C)(C)C)cc2C1=O |  | inconclusive [inhibitor, partial curve]
CCc1nnc(NS(=O)(=O)c2ccc(NC(=S)NC(=O)c3ccc(Br)cc3)cc2)s1 |  | inconclusive [inhibitor, partial curve]
Cn1nnnc1Sc1ncnc2scc(-c3ccc(C#N)cc3)c12 |  | inconclusive [inhibitor, partial curve]
O=C(Nc1ccc(CN2CCOCC2)cc1)c1cccs1 |  | inconclusive [inhibitor, single point]
CC(c1ccccc1)N1CCn2c(nc3cc(NC(=O)c4cccs4)ccc32)C1 (stereo not given) |  | inconclusive [inhibitor, partial curve]
COc1ccc(-c2nc(CS(=O)CC(=O)NC3CCCC3)c(C)o2)cc1 (stereo not given) |  | inconclusive [inhibitor, full curve]
COc1nccnc1NS(=O)(=O)c1ccc(NC(=S)NC(=O)c2ccccc2)cc1 |  | inconclusive [inhibitor, partial curve]
COc1cccc(CNC(=O)Cn2ccc3cc(S(=O)(=O)N4CCCC4)ccc32)c1 |  | inconclusive [inhibitor, full curve, poor fit]
Cc1sc2nc(CSCC(=O)Nc3ccccc3C#N)[nH]c(=O)c2c1C | inactive: -17.9% | 
CCOC(=O)C1=C(C)N(c2ccccc2)C(=O)C1CC(=O)O (stereo not given) |  | inconclusive [inhibitor, partial curve]
COc1ccc(-n2c(Cc3cccn3C)nnc2SCC(=O)Nc2cccc(F)c2)cc1 |  | inconclusive [inhibitor, partial curve]
CCOc1ccc(S(=O)(=O)Nc2ccc3c(c2)c(C(C)=O)c(C)n3S(=O)(=O)c2ccc(OCC)cc2)cc1 | inactive: -0.55% | 

SMILES | activity change, negative = inhibition | Potency
CCCCn1c(CCC)nc([N+](=O)[O-])c1Sc1ccc(Cl)cn1 |  | active: 22.4 µM
COC(=O)c1ccc(C2c3c(oc4cc(C)c(C)cc4c3=O)C(=O)N2c2ccccn2)cc1 (stereo not given) |  | inconclusive [inhibitor, single point]
COCCNC(=O)/C(C#N)=C/c1cccc(/C=C(\C#N)C(=O)NCCOC)c1 | inactive: -19.2% | 
c1ccc2c(c1)CCN(Cc1nnnn1Cc1ccc3c(c1)OCO3)C2 | inactive: -23.8% | 
COc1ccccc1-n1c(SCC(=O)NC(C)(C)C)nnc1-c1ccco1 |  | inconclusive [inhibitor, partial curve]
O=C(CCS(=O)(=O)c1cc2c3c(c1)CCN3C(=O)CC2)NCc1ccc(F)cc1 | inactive: 7.16% | 
N#Cc1cc2c(nc1SCC(=O)Nc1sc3c(c1C#N)CCC3)CCCCC2 |  | inconclusive [inhibitor, partial curve, poor fit]
CC1CCN(S(=O)(=O)c2ccc(NC(=O)c3ccncc3)cc2)CC1 |  | inconclusive [inhibitor, single point]
Cc1ccc(S(=O)(=O)N(C)c2ccc3c(ncn3C)c2[N+](=O)[O-])cc1 | inactive: -0.898% | 
N#Cc1c(NC(=O)/C=C/C(=O)O)sc2c1CCN(Cc1ccccc1)C2 |  | active: 25.1 µM
COc1cccc(C=O)c1OCCCOc1cccc2cccnc12 |  | inconclusive [inhibitor, partial curve]
Cc1nc2ccc3nc(NC(=O)c4ccc5c(c4)OCCO5)sc3c2s1 | inactive: -3.97% | 
CC(C)Oc1cccc(C(=O)NC(=S)Nc2ccc(Cl)c(C(=O)O)c2)c1 |  | active: 39.8 µM
CCc1ccc(NC(=O)C2CCCN(S(=O)(=O)c3c(C)[nH]c(=O)[nH]c3=O)C2)cc1 (stereo not given) |  | inactive
O=C(N1CCOCC1)N(CCN1CCOCC1)Cc1cccc2ccccc12 |  | inconclusive [inhibitor, partial curve]
C=CCc1cc(/C=C2/NC(=O)NC2=O)cc(OCC)c1O |  | active: 50.1 µM
Cn1c(C(=O)N/N=C/c2ccccc2)cc2ccccc21 |  | inconclusive [inhibitor, single point]
CCOc1ccc(CC(=O)NCCc2csc3nc(-c4ccccc4F)nn23)cc1 | inactive: -10.2% | 
Cc1ccc(S(=O)(=O)N2CCCNCC2)cc1 |  | active: 15.8 µM
COc1ccccc1N=C1SCC(=O)N1Cc1ccco1 |  | inconclusive [inhibitor, partial curve]
O=C(CSc1n[nH]c(-c2ccccc2)n1)N1CCCCC1 |  | inconclusive [inhibitor, single point]
NC1=NC(=O)/C(=C/c2ccc(-c3ccc(S(N)(=O)=O)cc3)o2)S1 |  | inconclusive [inhibitor, partial curve, poor fit]
